Hit rate of the full screen: of about 340,000 compounds, about 12,000 (3.5%) were called active. Inconclusive results, whose numbers are uncertain, are shown with a selection of clear calls. The call rests on the fitted dose curve; in most records, active means well fitted inhibition curve with a large enough effect; inconclusive means small, poorly fitted or top-dose-only effect, or another doubt; inactive means no such curve, though single readings can be large or run the other way. No potency is given beside an inconclusive call; the fits are too rough.
Experiment: qHTS Assay for Inhibitors of Hepatitis C Virus (HCV)
Conditions: Huh7.5.1 HCVcc-Cre (HCVcc is cell-culture hepatitis C virus) infection, luciferase reporter, 44 h; activity change, negative = inhibition: at 41.8 µM (top of the series)
Excerpt: Hepatitis C virus (HCV) infects about 200 million people in the world. Many infected people progress to chronic liver disease including cirrhosis with a risk of developing liver cancer. To date, there is no effective vaccine for hepatitis C. Current therapy based on interferon is only effective in about half of the patients and is associated with significant adverse effects. The fraction of people with HCV who can complete a successful treatment is estimated to be no more than 10 percent. Recent development of direct-acting antivirals against HCV, such as protease and polymerase inhibitors, is promising but still requires combination with peginterferon and ribavirin for maximal efficacy. In addition, these agents are associated with high rate of resistance and many have significant side effects. Due to the lack of a culture system for infectious HCV, the search for new HCV drugs has been greatly hampered. […] High-throughput screening (HTS) with an infectious HCV system would cover the complete spectrum of potentially druggable targets in all stages of HCV lifecycle, and would have more biological relevance than other cell-based assays. Moreover, targeting several key processes in the viral life cycle may not only increase antiviral efficacy; more importantly, it may also reduce the capacity of the virus to develop resistance to the compound. The goal of this project is to identify novel HCV inhibitors as new therapies for hepatitis C, using a highly sensitive and specific assay platform which is based on a HCV infectious cell culture system established in the laboratory and adapted for high-throughput HCV drug screen. NIH Chemical Genomics Center [NCGC] NIH Molecular Libraries Probe Centers Network [MLPCN] MLPCN Grant: MH095511 Assay Submitter (PI): Jake Liang, NIDDK
The assay will start with plating 1,000 cells/well in 3 µL volume and culture for 4 h. Then 23 nL of compounds from the library collection will be added to each well, followed by adding 2.5 µL of HCVcc-Cre virus (~ 0.5 moi) and further cultured for 44 h before the luciferase assay. A volume of 4.5 µL luciferase substrates will be added to each well and the plates will be incubated at room temperature for 15 min. and then read for 15 sec. for the luciferase activity
In the case of `CCOC(=O)C1CCCN(c2ncnc3c2cnn3-c2cccc(C)c2)C1` (centres undefined), the “activity change, negative = inhibition” value is reported as inactive: -17.7%.
With `CNC(=S)N1N=C(c2ccc(C)cc2)CC1c1cc(OC)ccc1OC` (centres undefined) the Potency was inconclusive [inhibitor, single point].
For `Cc1nc(CNS(=O)(=O)c2cccs2)cs1`, the “activity change, negative = inhibition” value was inactive: 12.2%.
For `CN(CCc1ccccc1)C(=O)c1ccc(NC(=O)Cc2ccc(NC(=O)C3CCCN(C(=O)C4CCCC4)C3)cc2)cc1` (centres undefined), the Potency was inconclusive [inhibitor, full curve, poor fit].
For `CCOC(=O)C(NS(=O)(=O)c1ccc(C)cc1)(C(F)(F)F)P(=O)(OCC(C)C)OCC(C)C` (centres undefined), the Potency was inconclusive [inhibitor, full curve].
For `Cc1cccc(OCC(=O)Nc2ccccc2C(F)(F)F)c1`, the “activity change, negative = inhibition” value was inactive: 16%.
For `O=C(Nc1ccc(Cl)c(S(=O)(=O)N2CCOCC2)c1)c1ccncc1`, the “activity change, negative = inhibition” value was inactive: 2.42%.
With `Cc1ccc(C2C=NN(c3ccccc3)C2=O)cc1` (centres undefined) the “activity change, negative = inhibition” value was inactive: 7.17%.
For `Cc1cccc(OCCn2c(=O)sc3ccccc32)c1`, the Potency was inconclusive [inhibitor, partial curve].
In the case of `CCCC(=O)N1CCN(c2ccc(NC(=O)c3ccco3)cc2)CC1`, the Potency is reported as active: 3.16 µM.
For `Cc1ccc(OC(F)F)c(NC(=O)Nc2ccc3c(c2)OCO3)c1`, the Potency was inconclusive [inhibitor, partial curve].
With `CN(C)CCOCCSc1ccc(Cl)cc1` the Potency was inconclusive [inhibitor, partial curve].
For `COc1ccc(NC(=O)CC2C(=O)NCCN2C(=O)c2ccc(Cl)cc2)cc1` (centres undefined), the “activity change, negative = inhibition” value was inactive: 2.01%.
In the case of `Cc1ccc(NC(=O)c2ccc(Cl)nc2)cc1S(=O)(=O)N1CCOCC1`, the Potency is reported as inconclusive [inhibitor, partial curve].
With `O=C(N/N=C/c1sc(N2CCOCC2)nc1-c1ccccc1)c1ccc(O)cc1` the Potency was inconclusive [inhibitor, partial curve].
With `Nc1c(C(=O)NCCN2CCOCC2)c2nc3ccccc3nc2n1-c1cccc(F)c1` the Potency was inconclusive [inhibitor, single point].
With `CCOc1ccc2c(C)cc(=O)oc2c1OCC` the “activity change, negative = inhibition” value was inactive: -8.16%.
In the case of `Cc1ccc(NC(=O)c2c(C)noc2C)cc1`, the “activity change, negative = inhibition” value is reported as inactive: 9.08%.
For `CCCNc1ccc(C(=O)OCC)cc1[N+](=O)[O-]`, the Potency was inconclusive [inhibitor, full curve].
With `COc1ccc(OC)c(S(=O)(=O)Nc2cc3c4c(c2)CC(=O)N4CCC3)c1` the Potency was inconclusive [inhibitor, single point].
For `Cc1nnsc1C(=O)NC1CCCc2c1cnn2-c1ccc(F)cc1F` (centres undefined), the Potency was inconclusive [inhibitor, full curve].
For `CCc1ccc(C2=NN(C(=O)CCC(=O)O)C(c3cccs3)C2)cc1` (centres undefined), the “activity change, negative = inhibition” value was inactive: 8.04%.
For `Cc1cc(C)c2cc(CN(CCN(C)C)C(=O)Nc3ccccc3Cl)c(=O)[nH]c2c1`, the Potency was inconclusive [inhibitor, single point].
With `CCOC(=O)c1c(-c2ccccc2)oc2ccc(O)cc12` the Potency was active: 2.82 µM.
With `Cc1cc(N2CCOCC2)nc(-c2ccccc2O)n1` the Potency was inconclusive [inhibitor, full curve].
With `COc1ccc(C(CCNC(C)c2ccccc2)c2ccc(F)cc2)cc1` (centres undefined) the Potency was inconclusive [inhibitor, partial curve].
In the case of `Cc1ccc(SCC(=O)Nc2ccc(-c3nc4ccccc4[nH]3)cc2)cc1`, the Potency is reported as inconclusive [inhibitor, single point].
With `O=C(Nn1cnc2ccccc2c1=O)c1ccccc1Cl` the “activity change, negative = inhibition” value was inactive: 2.53%.
With `COc1ccc(C(=O)NCCn2cc(SCC(=O)Nc3cc(C)on3)c3ccccc32)cc1OC` the Potency was inconclusive [inhibitor, full curve].
For `Cc1cccc(NS(=O)(=O)c2ccc(C(=O)NCC(C)(C)N3CCOCC3)cc2)c1C`, the Potency was inconclusive [inhibitor, partial curve, poor fit].
With `Cc1cccc(-n2nnnc2SCC(=O)Nc2cccc(S(N)(=O)=O)c2)c1` the Potency was inconclusive [inhibitor, single point].
With `COc1cc(OC)c(C2=NOC(C(=O)Nc3cc(C)nn3-c3ccccc3)C2)cc1Cl` (centres undefined) the Potency was inconclusive [inhibitor, partial curve].
For `CCCn1c(SCC(=O)c2cc(C)n(-c3cc(C)on3)c2C)n[nH]c1=O`, the Potency was inconclusive [inhibitor, partial curve].
With `O=C(COC(=O)CN1C(=O)c2ccccc2C1=O)Nc1cccc(F)c1` the “activity change, negative = inhibition” value was inactive: 7.51%.
For `C=CCn1c(C)cc(/C([O-])=C(/C(=S)Nc2ccc(OC(F)F)cc2)[n+]2ccc(N(C)C)cc2)c1C`, the Potency was inconclusive [inhibitor, single point].
For `N#C/C(=C1\CCCN1)c1ccc2ccccc2n1`, the Potency was inconclusive [inhibitor, partial curve].
For `CC1=CC(C)(C)N(C(=O)CSc2nccn2C)c2cc(C)ccc21`, the Potency was inconclusive [inhibitor, partial curve, poor fit].
In the case of `Cc1ccc(OCc2cc(C(=O)NCc3cn4ccccc4n3)no2)cc1C`, the Potency is reported as inconclusive [inhibitor, partial curve].
With `COc1ccc(/C=C/C(=O)Nc2cccnc2)cc1OC` the Potency was inconclusive [inhibitor, single point].
With `O=C(Nc1ccc(-c2cscn2)cc1)C1CCCN(Cc2ccccc2)C1` (centres undefined) the Potency was inconclusive [inhibitor, partial curve].
With `CCN1CCN(c2ccc(Cl)cc2NC(=O)c2ccc(-n3nc(C)cc3C)cc2)CC1` the Potency was inconclusive [inhibitor, partial curve].
In the case of `CCSC1=C(C#N)C(c2ccccc2Cl)C(C(=O)c2cccs2)C(O)(C(F)(F)F)N1` (centres undefined), the Potency is reported as inconclusive [inhibitor, partial curve].
In the case of `CC[C@@H](CC1CCCCC1)C(=O)N(Cc1ccccc1)c1ccccc1`, the Potency is reported as active: 10 µM.
For `Cc1ccc2nc3c(cc(C(=O)NC4CCCC4)c(=N)n3C3CCCCC3)c(=O)n2c1`, the Potency was inconclusive [inhibitor, single point].

Source: PubChem BioAssay AID651820 (National Center for Advancing Translational Sciences (NCATS), 2012)
On the % scale 0 is the no-effect control and ±100 the full control effect; tags describe the fitted curve by direction and shape.
